“And” between values parts separate entries of the source, which are not always exact repeats. Equal values may be shown once. ± gives the uncertainty stated by the source. This continues a long series; more values of the same kind are listed elsewhere.
Test: xn = mol fraction of the nth substance listed

CN(C)C=O + O
viscosity (293.15 K, 100 kPa, x2 = 0.1): 0.959 ± 0.012 mPa·s
viscosity (293.15 K, 100 kPa, x2 = 0.2): 1.122 ± 0.014 mPa·s
viscosity (293.15 K, 100 kPa, x2 = 0.3): 1.347 ± 0.016 mPa·s
viscosity (293.15 K, 100 kPa, x2 = 0.4): 1.665 ± 0.02 mPa·s
viscosity (293.15 K, 100 kPa, x2 = 0.5): 2.081 ± 0.024 mPa·s
viscosity (293.15 K, 100 kPa, x2 = 0.6): 2.549 ± 0.029 mPa·s
viscosity (293.15 K, 100 kPa, x2 = 0.7): 2.867 ± 0.033 mPa·s
viscosity (293.15 K, 100 kPa, x2 = 0.8): 2.746 ± 0.031 mPa·s
viscosity (293.15 K, 100 kPa, x2 = 0.9): 2.009 ± 0.023 mPa·s
viscosity (293.15 K, 100 kPa, x2 = 0.92): 1.808 ± 0.021 mPa·s
viscosity (293.15 K, 100 kPa, x2 = 0.94): 1.612 ± 0.018 mPa·s
viscosity (293.15 K, 100 kPa, x2 = 0.96): 1.399 ± 0.016 mPa·s
viscosity (293.15 K, 100 kPa, x2 = 0.98): 1.197 ± 0.014 mPa·s
viscosity (293.15 K, 101 kPa, x2 = 0.6): 2.73 ± 0.64 mPa·s
viscosity (293.15 K, 101 kPa, x2 = 0.8): 2.69 ± 0.63 mPa·s
viscosity (298 K, 101 kPa, x1 = 0.02362): 1.099 ± 0.0064 mPa·s
viscosity (298 K, 101 kPa, x1 = 0.027): 1.024 ± 0.0087 mPa·s
viscosity (298 K, 101 kPa, x1 = 0.058): 1.479 ± 0.013 mPa·s
viscosity (298 K, 101 kPa, x1 = 0.096): 1.688 ± 0.014 mPa·s
viscosity (298 K, 101 kPa, x1 = 0.14): 2.147 ± 0.018 mPa·s
viscosity (298.15 K, 100 kPa, x2 = 0.1): 0.8957 ± 0.011 mPa·s
viscosity (298.15 K, 100 kPa, x2 = 0.2): 1.033 ± 0.013 mPa·s
viscosity (298.15 K, 100 kPa, x2 = 0.3): 1.228 ± 0.015 mPa·s
viscosity (298.15 K, 100 kPa, x2 = 0.4): 1.499 ± 0.018 mPa·s
viscosity (298.15 K, 100 kPa, x2 = 0.5): 1.841 ± 0.022 mPa·s
viscosity (298.15 K, 100 kPa, x2 = 0.6): 2.218 ± 0.026 mPa·s
viscosity (298.15 K, 100 kPa, x2 = 0.7): 2.462 ± 0.028 mPa·s
viscosity (298.15 K, 100 kPa, x2 = 0.8): 2.337 ± 0.027 mPa·s
viscosity (298.15 K, 100 kPa, x2 = 0.9): 1.739 ± 0.02 mPa·s
viscosity (298.15 K, 100 kPa, x2 = 0.92): 1.572 ± 0.018 mPa·s
viscosity (298.15 K, 100 kPa, x2 = 0.94): 1.404 ± 0.016 mPa·s
viscosity (298.15 K, 100 kPa, x2 = 0.96): 1.23 ± 0.014 mPa·s
viscosity (298.15 K, 100 kPa, x2 = 0.98): 1.06 ± 0.012 mPa·s
viscosity (298.15 K, 101 kPa, x1 = 0.02): 1.091 ± 0.0094 mPa·s
viscosity (298.15 K, 101 kPa, x1 = 0.03): 1.109 ± 0.011 mPa·s
viscosity (298.15 K, 101 kPa, x1 = 0.05): 1.326 ± 0.015 mPa·s
viscosity (298.15 K, 101 kPa, x1 = 0.0503): 1.361 ± 0.011 mPa·s
viscosity (298.15 K, 101 kPa, x1 = 0.06): 1.37 ± 0.015 mPa·s
viscosity (298.15 K, 101 kPa, x1 = 0.1006): 1.79 ± 0.013 mPa·s
viscosity (298.15 K, 101 kPa, x1 = 0.1202): 1.94 ± 0.014 mPa·s
viscosity (298.15 K, 101 kPa, x1 = 0.1498): 2.138 ± 0.015 mPa·s
viscosity (298.15 K, 101 kPa, x1 = 0.15): 2.127 ± 0.027 mPa·s
viscosity (298.15 K, 101 kPa, x1 = 0.1698): 2.259 ± 0.015 mPa·s
viscosity (298.15 K, 101 kPa, x1 = 0.2): 2.36 ± 0.032 mPa·s
viscosity (298.15 K, 101 kPa, x1 = 0.2002): 2.395 ± 0.016 mPa·s
viscosity (298.15 K, 101 kPa, x1 = 0.22): 2.459 ± 0.017 mPa·s
viscosity (298.15 K, 101 kPa, x1 = 0.25): 2.485 ± 0.035 mPa·s
viscosity (298.15 K, 101 kPa, x1 = 0.2504): 2.52 ± 0.017 mPa·s
viscosity (298.15 K, 101 kPa, x1 = 0.2702): 2.536 ± 0.017 mPa·s
viscosity (298.15 K, 101 kPa, x1 = 0.3): 2.484 ± 0.037 mPa·s and 2.5 ± 0.025 mPa·s and 2.473 ± 0.042 mPa·s
viscosity (298.15 K, 101 kPa, x1 = 0.3001): 2.526 ± 0.017 mPa·s
viscosity (298.15 K, 101 kPa, x1 = 0.3202): 2.501 ± 0.017 mPa·s
viscosity (298.15 K, 101 kPa, x1 = 0.3499): 2.442 ± 0.017 mPa·s
viscosity (298.15 K, 101 kPa, x1 = 0.35): 2.405 ± 0.037 mPa·s
viscosity (298.15 K, 101 kPa, x1 = 0.4): 2.239 ± 0.036 mPa·s and 2.255 ± 0.022 mPa·s
viscosity (298.15 K, 101 kPa, x1 = 0.4003): 2.288 ± 0.016 mPa·s
viscosity (298.15 K, 101 kPa, x1 = 0.4503): 2.105 ± 0.015 mPa·s
viscosity (298.15 K, 101 kPa, x1 = 0.5): 1.862 ± 0.032 mPa·s and 1.916 ± 0.013 mPa·s and 1.911 ± 0.042 mPa·s
viscosity (298.15 K, 101 kPa, x1 = 0.6): 1.513 ± 0.029 mPa·s
viscosity (298.15 K, 101 kPa, x1 = 0.6002): 1.563 ± 0.011 mPa·s
viscosity (298.15 K, 101 kPa, x1 = 0.7): 1.287 ± 0.0099 mPa·s
viscosity (298.15 K, 101 kPa, x1 = 0.8): 1.084 ± 0.0087 mPa·s
viscosity (298.15 K, 101 kPa, x1 = 0.8501): 1.03 ± 0.0084 mPa·s
viscosity (298.15 K, 101 kPa, x1 = 0.9): 0.8984 ± 0.022 mPa·s and 0.9619 ± 0.008 mPa·s
viscosity (298.15 K, 101.33 kPa, x1 = 0.042): 1.253 ± 0.01 mPa·s
viscosity (298.15 K, 101.33 kPa, x1 = 0.076): 1.547 ± 0.014 mPa·s
viscosity (298.15 K, 101.33 kPa, x2 = 0.1056): 0.914 ± 0.023 mPa·s
viscosity (298.15 K, 101.33 kPa, x2 = 0.303): 1.226 ± 0.03 mPa·s
viscosity (298.15 K, 101.33 kPa, x2 = 0.4062): 1.497 ± 0.036 mPa·s
viscosity (298.15 K, 101.33 kPa, x2 = 0.5088): 1.857 ± 0.043 mPa·s
viscosity (298.15 K, 101.33 kPa, x2 = 0.6057): 2.211 ± 0.051 mPa·s
viscosity (298.15 K, 101.33 kPa, x2 = 0.7015): 2.426 ± 0.055 mPa·s
viscosity (298.15 K, 101.33 kPa, x2 = 0.8044): 2.295 ± 0.052 mPa·s
viscosity (298.15 K, 101.33 kPa, x2 = 0.9034): 1.69 ± 0.039 mPa·s
viscosity (303.15 K, 100 kPa, x2 = 0.1): 0.8364 ± 0.01 mPa·s
viscosity (303.15 K, 100 kPa, x2 = 0.2): 0.9538 ± 0.012 mPa·s
viscosity (303.15 K, 100 kPa, x2 = 0.3): 1.118 ± 0.013 mPa·s
viscosity (303.15 K, 100 kPa, x2 = 0.4): 1.348 ± 0.016 mPa·s
viscosity (303.15 K, 100 kPa, x2 = 0.5): 1.634 ± 0.019 mPa·s
viscosity (303.15 K, 100 kPa, x2 = 0.6): 1.933 ± 0.022 mPa·s
viscosity (303.15 K, 100 kPa, x2 = 0.7): 2.126 ± 0.024 mPa·s
viscosity (303.15 K, 100 kPa, x2 = 0.8): 2.014 ± 0.023 mPa·s
viscosity (303.15 K, 100 kPa, x2 = 0.9): 1.511 ± 0.017 mPa·s
viscosity (303.15 K, 100 kPa, x2 = 0.92): 1.375 ± 0.016 mPa·s
viscosity (303.15 K, 100 kPa, x2 = 0.94): 1.236 ± 0.014 mPa·s
viscosity (303.15 K, 100 kPa, x2 = 0.96): 1.088 ± 0.013 mPa·s
viscosity (303.15 K, 100 kPa, x2 = 0.98): 0.9425 ± 0.011 mPa·s
viscosity (303.15 K, 101 kPa, x1 = 0.0503): 1.201 ± 0.0098 mPa·s
viscosity (303.15 K, 101 kPa, x1 = 0.0699): 1.349 ± 0.011 mPa·s
viscosity (303.15 K, 101 kPa, x1 = 0.1006): 1.565 ± 0.012 mPa·s
viscosity (303.15 K, 101 kPa, x1 = 0.1202): 1.689 ± 0.012 mPa·s
viscosity (303.15 K, 101 kPa, x1 = 0.1498): 1.857 ± 0.013 mPa·s
viscosity (303.15 K, 101 kPa, x1 = 0.1698): 1.954 ± 0.014 mPa·s
viscosity (303.15 K, 101 kPa, x1 = 0.2002): 2.068 ± 0.014 mPa·s
viscosity (303.15 K, 101 kPa, x1 = 0.22): 2.121 ± 0.015 mPa·s
viscosity (303.15 K, 101 kPa, x1 = 0.2504): 2.174 ± 0.015 mPa·s
viscosity (303.15 K, 101 kPa, x1 = 0.2702): 2.189 ± 0.015 mPa·s
viscosity (303.15 K, 101 kPa, x1 = 0.3202): 2.165 ± 0.015 mPa·s
viscosity (303.15 K, 101 kPa, x1 = 0.3499): 2.121 ± 0.015 mPa·s
viscosity (303.15 K, 101 kPa, x1 = 0.4003): 2 ± 0.014 mPa·s
viscosity (303.15 K, 101 kPa, x1 = 0.4503): 1.854 ± 0.013 mPa·s
viscosity (303.15 K, 101 kPa, x1 = 0.5): 1.701 ± 0.012 mPa·s
viscosity (303.15 K, 101 kPa, x1 = 0.7): 1.176 ± 0.0093 mPa·s
viscosity (303.15 K, 101 kPa, x1 = 0.8): 1.002 ± 0.0083 mPa·s
viscosity (303.15 K, 101 kPa, x1 = 0.8501): 0.9556 ± 0.008 mPa·s
viscosity (303.15 K, 101 kPa, x1 = 0.9): 0.8958 ± 0.0077 mPa·s
viscosity (303.15 K, 101.33 kPa, x1 = 0.099): 1.521 ± 0.012 mPa·s
viscosity (303.15 K, 101.33 kPa, x1 = 0.2009): 2.023 ± 0.015 mPa·s
viscosity (303.15 K, 101.33 kPa, x1 = 0.3008): 2.13 ± 0.016 mPa·s
viscosity (303.15 K, 101.33 kPa, x1 = 0.3995): 1.942 ± 0.015 mPa·s
viscosity (303.15 K, 101.33 kPa, x1 = 0.5005): 1.629 ± 0.013 mPa·s
viscosity (303.15 K, 101.33 kPa, x1 = 0.5999): 1.36 ± 0.011 mPa·s
viscosity (303.15 K, 101.33 kPa, x1 = 0.6997): 1.127 ± 0.009 mPa·s
viscosity (303.15 K, 101.33 kPa, x1 = 0.7998): 0.9634 ± 0.0078 mPa·s
viscosity (303.15 K, 101.33 kPa, x1 = 0.9): 0.845 ± 0.007 mPa·s
viscosity (308.15 K, 100 kPa, x2 = 0.1): 0.7824 ± 0.0097 mPa·s
viscosity (308.15 K, 100 kPa, x2 = 0.2): 0.8866 ± 0.011 mPa·s
viscosity (308.15 K, 100 kPa, x2 = 0.3): 1.03 ± 0.012 mPa·s
viscosity (308.15 K, 100 kPa, x2 = 0.4): 1.22 ± 0.015 mPa·s
viscosity (308.15 K, 100 kPa, x2 = 0.5): 1.463 ± 0.017 mPa·s
viscosity (308.15 K, 100 kPa, x2 = 0.6): 1.697 ± 0.02 mPa·s
viscosity (308.15 K, 100 kPa, x2 = 0.7): 1.85 ± 0.021 mPa·s
viscosity (308.15 K, 100 kPa, x2 = 0.8): 1.752 ± 0.02 mPa·s
viscosity (308.15 K, 100 kPa, x2 = 0.9): 1.331 ± 0.015 mPa·s
viscosity (308.15 K, 100 kPa, x2 = 0.92): 1.217 ± 0.014 mPa·s
viscosity (308.15 K, 100 kPa, x2 = 0.94): 1.097 ± 0.013 mPa·s
viscosity (308.15 K, 100 kPa, x2 = 0.96): 0.9683 ± 0.011 mPa·s
viscosity (308.15 K, 100 kPa, x2 = 0.98): 0.8451 ± 0.0098 mPa·s
viscosity (308.15 K, 101 kPa, x1 = 0.02): 0.869 ± 0.0079 mPa·s
